Read counts are not given, so values of variants with three or more changes are uncertain.
B1: CPEB3 Ribozyme (parent)
chain: UAACAGGGGGCCACAGCAGAAGCGUUCACGUCGCAGCCCCUGUCAGAUUCUGGUGAAUCUGCGAAUUCUGCUGUAUAUCUC

Variants of: B1
Assay: self-cleavage, relative activity (ratio to wild type); higher = more cleavage; in vitro, sequencing
Procedure, shortened: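 Barcoded CPEB3 ribozyme mutants, produced by rounds of error-prone PCR, self-cleaved while being transcribed with T7 RNA polymerase for 5 hours at 37°C and during a subsequent 15 min DNase I step before EDTA was added. Sequencing of template-switched cDNA on Illumina gave cleaved and total reads, and DNA sequencing assigned barcodes to variants. Each variant's relative activity is its cleaved/total read fraction divided by the unmutated ribozyme's fraction, averaged across three batches. A variant needed a minimum of 5 reads.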

Variant	self-cleavage
A20G G22A A28U U31A A57G U67C U72C	0.06
A20G G63A U80C	0.82
A20G U31G C79U	0.23
A20G U26A A35C A56G A57G U78C	0.13
A20U A35G C59A	0.31
A20G U31G A64G	0.19
A20G U26C C29A U49C A64G	0.14
A20U A35G A56G A57G U69A	0.25
A20G U26A G30U G42A	0.19
A20G U41C A65G	0.19
A20U A28G U51A U69C	0.34
A20G U31C U41A	0.09
A20G G30C A47U U48C U60G	0.06
A20G U25C A64G U67A U76C A77U	0.39
A20G C59U U60C U78A	0.52
A20G U26A A35U C37G U76G	0.22
A20G U25C U43A G46U	0.26
A20G U25C A56U U80C	0.57
A20G U25C A35U A65U U74C A75G	0.07
A20G G33A C38U G52A U67C	0.05
A20G U51A G52A U58A G63A A77C	0.38
A20G U41C A65U U72C	0.35
A20G U25C U31C	0.3
A20G C40U U41A U51A U78C	0.5

Variant	self-cleavage
A20G U31A A57G	0.34
A20G G46C A47C A64G	0
A20G U31A U78A	0.23
A20G U41C G53A U67C	0.96
A20G U48C A77U	0.37
A20G U43C U49A	0.3
A20G U51C U72C C79A	1.05
A20G U43C A47G	0.45
A20G G30A U67C	0.18
A20G U25C U41C U43C	0.06
A20U A28C U66C	0.43
A20G U41A U49C	0.2
A20G U26C A45G	0.32
A20G G36U A45G U78C	0.05
A20U A28G A56U U66C U78C	0.17
A20U A21U A35U U72A	0.15
A20G U25C U43A U72A U80C	0.16
A20G U25C U41C U48C U51A A57G U60A	0.1
A20G U31A A35U U67A	0.18
A20G U26A A28G U72A	0.04
A20G U31A G63U	0.3
A20G G55C U60C U69C	0.25
A20G G52U U54C A56G U78A	1.14
A20U A28U U41C A47G A56G U58C U72C	0.14

Variant	self-cleavage
A20G U26C U31A U69C	0.16
A20G U51A U54A	0.82
A20G G24C A57G A77U	0.14
A20G U26C U41A U60C A65G U66C U78C	0.17
A20G U41A U49C U67C A75G	0.1
A20G G33A A35U A45G U58C U69C U74C	0.05
A20U A28G U51C	0.15
A20G U25A C40U U51C U72C	0.07
A20G G22C U26A A28U U43A U66C	0.04
A20U A28C G42A	0.08
A20G U31A U41C	0.23
A20G U26C U31A G46A U51C	0.07
A20G U48A U58G A77U C79U	0.08
A20G U54A U80C	1.13
A20U A28U A35G A56G	0.27
A20G U25C C27A A65U A75U	0.09
A20G U41C G46A G52C U60C A64G A65G	0.06
A20U A28G A65U	0.39
A20G U25C A45C U54C U74C A75G	0.12
A20G G30A G42U	0.09
A20G G33A A47G U67G U69G	0.04
A20U A28U A56U	0.21
A20G U58C U60A	0.11
A20G U26C G55U U67A U69C	0.15

Variant	self-cleavage
A20G U26C A28G A35G U43C U49C U80C	0.39
A20G C37U U58C U69C U72C	0.07
A20G C37U U72C A75U	0.64
A20G U41C A45U C59U A65G	0.15
A20G U48C U69A	0.22
A20G U54G G70A U78C	0.27
A20G U48C A65U	0.09
A20G U51A A57G	0.31
A20G U26A A45U	0.27
A20G U66G U80C	0.21
A20G U25A C50U U66C	0.15
A20G U25C A65U	0.32
A20G G36U U48C	0.41
A20U A28G U54A C62A U67C U72C	0.05
A20G U41C A64G U74G	0.75
A20G U43A U74C	1.22
A20G C40A U41C	0.47
A20U A21G A45G U51C A64G	0.24
A20U A21G U25C U51G G55A	0.18
A20G C44U A57G U66C	0.07
A20U A21G U41C A57U U67A	0.32
A20G G33A G61A	0.23
A20G U31C A64U U72G	0.12
A20G C38A U41C A47G	0.2

Variant	self-cleavage
A20G U60C A64U	0.13
A20G U43G U67C	0.15
A20G U26A A35G U43C U54C	0.41
A20G U51C A57U U72C U80C	0.33
A20G U54C A56G A75G	0.42
A20G U41A U49C U67C U74C	0.1
A20G C39A U67C	0.33
A20G U48A U80A	0.14
A20U A28G U31A A64G A65G	0.1
A20G U60C A65C U74C	0.13
A20G U25C U54A	0.15
A20G U66A G73A U80C	1.05
A20G U41A G61A U66C	0.11
A20G C39G U69C	0.17
A20G U48C U51A A56U	0.17
A20G U72A U78C	0.5
A20G G22A U51A A65G U72C	0.13
A20G U31C U41C U72C	0.42
A20G G24A A45G	0.42
A20G U41A A45G A56G U74C U80C	0.1
A20G U26A U31A	0.31
A20U A28U U41C U49C A64U U66C U67A	0.06
A20G U49C U66C A77G	0.13
A20G U26C A45U U72C A75G	0.06

Variant	self-cleavage
A20G U25C U31G C44U G53A A77G	0.06
A20G C39A U69C	0.09
A20G U25C A35G U49C A65G	0.06
A20U A28U A45G U76A	0.32
A20G U25C U26A G53U U67C A77U U80C	0.11
A20G U26G A35G U48A	0.27
A20G U25C U31C U66C U67A U78C	0.09
A20G U31C U49C G55A A56G	0.34
A20G U26C A75G	0.19
A20G U25C A56G G61A	0.07
A20G G63U U76G	1.16
A20G U26C G42C	0.3
A20G U31C A45G U60C	0.78
A20G U31C A64G U67A U74A	0.25
A20G U26A A35G G42A G53A U67C	0.2
A20G U60C U72C	0.35
A20G G36C U43A	0.09
A20G U41A G61C A75G	0.38
A20G U26A C38U U41C C44U U54A C79A	0.06
A20G U67C U78C	0.85
A20G U26C A45C U72C	0.32
A20G G36U U80A	0.13
A20U A21U C23U A47G U51A U69C	0.03
A20U A21G G73A	0.3

Variant	self-cleavage
A20G G46A A56G	0.21
A20G U60C U69A	0.15
A20G U51A U60C A65U U74C	0.25
A20G U25A U26C U67C	0.14
A20G U41C U78G	1.13
A20G G36C A75G	0.15
A20G U31C U48A	0.14
A20G U26C U60C C79U	0.06
A20G U43A U67C	1.18
A20G U41C C59U U69A	0.26
A20G U25C A28U	0.08
A20G G52A A64G	0.6
A20G U43C U67C U72C	0.51
A20G U43A A45U	0.46
A20G G42U U48C U49A	0.14
A20U A28G A47U U58C U72G	0.28
A20U A28U G33U U41A	0.21
A20G U25C U31C A45U A77G	0.08
A20U A28U C34G A57G U72C U78C	0.22
A20U A28G A45U	0.14
A20G U31C A65G A77U	0.15
A20U A21U G24C A47G U80C	0.24
A20G U31A C34A U48C A77U	0.05
